# Measurements taken from PubChem BioAssay (Tox21).
# Values joined by “and” are separate entries in the source; they are usually repeats but may differ in a detail not shown here. Equal entries are not always repeated. Inconclusive means that the source gave no clear call. Such entries were picked first, then a sample of the others. For some assays here: A potency beside an inconclusive call is a rough fit, not a confirmed value. Where a structure was tested more than once in an assay, its records may differ in their call. Active and inactive are the calls of the source. Unless noted, calls come from the whole dose curve.
# Tests used:
# [1] = target: Peroxisome proliferator-activated receptor gamma (Homo sapiens) (UniProt P37231); test: qHTS assay to identify small molecule antagonists of the peroxisome proliferator-activated receptor gamma (PPARg) signaling pathway (AID 743191); conditions: HEK293H PPARg-UAS-bla, beta-lactamase ratio, antagonist, 17 h; ratio activity, negative = inhibition: at 62.6 µM (top of the series) unless noted; note: nearly all actives have a fitted effect of over 30% in size; note: potency is the fitted concentration of half-maximal effect; for ratio activity, negative = inhibition: % is set by controls: 0 for no effect and ±100 for the full control effect
# Chain of UniProt P37231 (P37231 whole entry, looked up): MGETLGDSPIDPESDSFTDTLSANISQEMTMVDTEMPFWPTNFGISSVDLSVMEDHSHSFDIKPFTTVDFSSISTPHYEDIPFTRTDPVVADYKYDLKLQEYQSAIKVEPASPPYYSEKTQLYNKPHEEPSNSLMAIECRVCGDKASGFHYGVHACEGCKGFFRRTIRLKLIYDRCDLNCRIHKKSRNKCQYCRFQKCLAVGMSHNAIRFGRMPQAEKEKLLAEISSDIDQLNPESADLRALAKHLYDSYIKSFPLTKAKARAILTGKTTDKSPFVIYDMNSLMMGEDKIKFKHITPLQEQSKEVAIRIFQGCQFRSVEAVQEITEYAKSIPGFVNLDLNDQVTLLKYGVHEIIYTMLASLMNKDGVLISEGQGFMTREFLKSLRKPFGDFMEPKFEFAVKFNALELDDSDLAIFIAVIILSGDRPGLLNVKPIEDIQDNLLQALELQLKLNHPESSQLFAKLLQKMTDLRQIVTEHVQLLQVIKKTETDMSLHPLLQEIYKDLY
# In short: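 GeneBLAzer PPARg UAS-bla HEK293H cells, 5 h post-plating, exposed to compounds 17 h at 37C. LiveBLAzer B/G FRET substrate added for 1 h at room temperature; beta-lactamase reporter read by fluorescence intensity.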
# [2] = qHTS assay for small molecule agonists of the antioxidant response element (ARE) signaling pathway (AID 743202; active = well fitted activation curve with a large enough effect in the signal ratio in the repeat runs, not every such curve was filed as active; inconclusive = weak or mixed curves, or effect the other way; inactive = no such curve, though single readings can be large or run the other way; the % refers to the signal ratio; note: potency is the fitted concentration of half-maximal effect; for activation: % is set by controls: 0 for no effect and ±100 for the full control effect); conditions: HepG2 ARE-bla reporter, beta-lactamase FRET, 16 h
# In short: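 Agonist mode reporter screen: HepG2 cells with ARE-controlled beta-lactamase are incubated with test compounds for 16 h at 37 C, and beta-lactamase activity is measured as fluorescence of cleaved B/G FRET substrate.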
# [3] = target: Peroxisome proliferator-activated receptor delta (Homo sapiens) (UniProt Q03181); test: qHTS assay to identify small molecule agonists of the peroxisome proliferator-activated receptor delta (PPARd) signaling pathway (AID 743212); conditions: HEK293H PPARd-UAS-bla, beta-lactamase FRET ratio, 17 h; activation: at 62.6 µM (top of the series) unless noted; note: potency is the fitted concentration of half-maximal effect; for activation: % is set by controls: 0 for no effect and ±100 for the full control effect
# Chain of UniProt Q03181 (Q03181 whole entry, looked up): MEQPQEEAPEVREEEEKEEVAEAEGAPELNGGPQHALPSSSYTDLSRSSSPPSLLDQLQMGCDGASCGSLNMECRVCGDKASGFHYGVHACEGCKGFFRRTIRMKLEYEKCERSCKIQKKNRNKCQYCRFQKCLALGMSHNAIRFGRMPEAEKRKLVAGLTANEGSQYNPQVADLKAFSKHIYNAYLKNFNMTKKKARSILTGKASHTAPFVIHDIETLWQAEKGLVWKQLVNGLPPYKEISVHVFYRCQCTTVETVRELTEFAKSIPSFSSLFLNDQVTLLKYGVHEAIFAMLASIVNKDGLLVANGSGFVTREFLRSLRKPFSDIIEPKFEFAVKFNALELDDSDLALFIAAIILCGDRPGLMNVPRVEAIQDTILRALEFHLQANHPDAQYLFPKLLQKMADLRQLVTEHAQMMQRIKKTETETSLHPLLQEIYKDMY
# In short: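 Quantitative high-throughput agonist screen in a HEK293H beta-lactamase reporter line under UAS control. Compounds in DMSO, at 37 C. Fluorescence read after 2 h with FRET substrate at room temperature.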
# [4] = target: Peroxisome proliferator-activated receptor delta (Homo sapiens) (UniProt Q03181); test: qHTS assay to identify small molecule antagonists of the peroxisome proliferator-activated receptor delta (PPARd) signaling pathway (AID 743215; active = well fitted inhibition curve with a large enough effect in the signal ratio in the repeat runs, not every such curve was filed as active; inconclusive = weak or mixed curves, or effect the other way; inactive = no such curve, though single readings can be large or run the other way; the % refers to the signal ratio;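 note: cells stimulated with agonist L165041 at 300 nM final during compound exposure; % is set by controls: 0 for no effect and ±100 for the full control effect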); conditions: HEK293H PPARd-UAS-bla, beta-lactamase FRET ratio, antagonist, 17 h; ratio activity, negative = inhibition: at 62 µM (top of the series) unless noted
# In short: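 HEK293H UAS-bla, PPARd; agonist L165041 300 nM final with cpd in DMSO; 37 C 17 h; FRET substrate, RT 2 h; fluorescence intensity.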
# [5] = qHTS assay to identify small molecule agonists of the farnesoid-X-receptor (FXR) signaling pathway - cell viability counter screen (AID 743218; active = well fitted curve in the direction sought with a large enough effect in the repeat runs; inconclusive = weak or mixed curves; inactive = no such curve, though single readings can be large; an effect the other way counts as inactive or inconclusive; note: nearly all actives have a fitted effect of over 45% in size; note: potency is the fitted concentration of half-maximal effect); conditions: FXR-bla HEK293T viability, CellTiter-Glo luminescence, 16 h; viability change, negative = cytotoxic: at 62.6 µM (top of the series) unless noted
# In short: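 Parallel cytotoxicity test: compound-treated (16 h, 37 C) HEK 293T FXR-bla reporter cells were lysed with CellTiter-Glo and luminescence recorded.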
# [6] = target: Vitamin D3 receptor (Homo sapiens) (UniProt P11473); test: qHTS assay to identify small molecule antagonists of the vitamin D receptor (VDR) signaling pathway (AID 743223; active = well fitted inhibition curve with a large enough effect in the signal ratio in the repeat runs, not every such curve was filed as active; inconclusive = weak or mixed curves, or effect the other way; inactive = no such curve, though single readings can be large or run the other way; the % refers to the signal ratio; note: potency is the fitted concentration of half-maximal effect); conditions: VDR-UAS-bla HEK293T, beta-lactamase FRET ratio, 16 h; activity change, negative = inhibition: at 61 µM (top of the series) unless noted
# Chain of UniProt P11473 (P11473 whole entry, looked up): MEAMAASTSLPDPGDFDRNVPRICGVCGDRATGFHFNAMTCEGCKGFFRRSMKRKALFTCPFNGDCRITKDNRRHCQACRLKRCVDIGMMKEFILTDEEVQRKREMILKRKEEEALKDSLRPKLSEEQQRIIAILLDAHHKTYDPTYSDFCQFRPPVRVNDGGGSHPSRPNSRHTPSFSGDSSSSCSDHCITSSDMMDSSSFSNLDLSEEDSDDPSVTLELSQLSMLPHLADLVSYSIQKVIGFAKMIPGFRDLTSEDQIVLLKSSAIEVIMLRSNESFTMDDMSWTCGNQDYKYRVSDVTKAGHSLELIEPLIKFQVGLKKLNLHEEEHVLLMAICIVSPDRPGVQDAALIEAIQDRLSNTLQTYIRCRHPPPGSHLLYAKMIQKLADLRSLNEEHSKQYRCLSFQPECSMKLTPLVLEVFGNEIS
# In short: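 Agonist 1alpha,25-dihydroxyvitamin D3 (3 nM in well) was added with each compound to VDR-bla cells preincubated 4 h. Cells stood 16 h at 37C, then FRET substrate 2 h at room temperature; fluorescence intensity recorded.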
# [7] = target: Bile acid receptor (Homo sapiens) (UniProt Q96RI1); test: qHTS assay to identify small molecule agonists of the farnesoid-X-receptor (FXR) signaling pathway (AID 743220; active = well fitted activation curve with a large enough effect in the signal ratio in the repeat runs, not every such curve was filed as active; inconclusive = weak or mixed curves, or effect the other way; the % refers to the signal ratio; note: potency is the fitted concentration of half-maximal effect); conditions: HEK293T FXR-UAS-bla, beta-lactamase FRET ratio, 16 h; activation: at 62.6 µM (top of the series) unless noted
# Chain of UniProt Q96RI1 (Q96RI1 whole entry, looked up): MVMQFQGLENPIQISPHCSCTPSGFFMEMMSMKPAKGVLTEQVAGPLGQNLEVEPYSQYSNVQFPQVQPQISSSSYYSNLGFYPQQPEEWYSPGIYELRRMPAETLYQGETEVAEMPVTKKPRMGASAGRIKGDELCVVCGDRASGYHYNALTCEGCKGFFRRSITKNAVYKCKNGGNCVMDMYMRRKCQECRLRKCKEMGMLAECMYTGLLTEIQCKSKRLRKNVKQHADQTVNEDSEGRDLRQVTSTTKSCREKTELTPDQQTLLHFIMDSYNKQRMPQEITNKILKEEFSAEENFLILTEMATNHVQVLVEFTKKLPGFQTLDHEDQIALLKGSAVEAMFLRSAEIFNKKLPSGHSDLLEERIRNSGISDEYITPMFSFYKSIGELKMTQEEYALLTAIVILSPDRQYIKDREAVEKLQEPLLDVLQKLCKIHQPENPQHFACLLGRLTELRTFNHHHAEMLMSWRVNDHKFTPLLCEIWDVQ
# In short: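 Beta-lactamase reporter under UAS control in GeneBLAzer FXR HEK 293T cells (5000/well) measured with LiveBLAzer FRET substrate after 2 h at room temperature. Compound exposure lasted 16 h at 37C.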
# [8] = qHTS assay for small molecule activators of the heat shock response signaling pathway (AID 743210; active = well fitted activation curve with a large enough effect in the signal ratio in the repeat runs, with a control signal flat, not every such curve was filed as active; inconclusive = weak or mixed curves; the % refers to the signal ratio; note: potency is the fitted concentration of half-maximal effect); conditions: HeLa HSE-bla reporter, beta-lactamase ratio, 5 h; activation: at 62.6 µM (top of the series)
# In short: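 Quantitative high-throughput format using an engineered HeLa line in which heat shock response elements drive beta-lactamase; after 5 h with compound, cells received a B/G FRET substrate and fluorescence was read.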
# [9] = qHTS assay to identify small molecule agonists of the vitamin D receptor (VDR) signaling pathway - cell viability counter screen (AID 743224; active = well fitted curve in the direction sought with a large enough effect in the repeat runs; inconclusive = weak or mixed curves; inactive = no such curve, though single readings can be large; an effect the other way counts as inactive or inconclusive; note: nearly all actives have a fitted effect of over 50% in size; note: potency is the fitted concentration of half-maximal effect); conditions: VDR-bla HEK293T viability, CellTiter-Glo luminescence, 16 h; series mostly up to 62.6 µM
# In short: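 Plated VDR-bla cells (4 h, 37C) received compound, incubated 16 h, then LiveBLAzer substrate 2 h RT; CellTiter-Glo added afterwards, luminescence read at 30 min.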
# [10] = qHTS assay to identify small molecule antagonists of the peroxisome proliferator-activated receptor delta (PPARd) signaling pathway - cell viability counter screen (AID 743213; active = well fitted curve in the direction sought with a large enough effect in the repeat runs; inconclusive = weak or mixed curves; inactive = no such curve, though single readings can be large; an effect the other way counts as inactive or inconclusive; note: potency is the fitted concentration of half-maximal effect; nearly all actives have a fitted effect of over 50% in size); conditions: PPARd-bla HEK293H viability, CellTiter-Glo luminescence, 17 h; viability change, negative = cytotoxic: at 62 µM (top of the series) unless noted
# In short: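 In this counter screen, HEK293H cells carrying a UAS-beta-lactamase reporter are co-treated with test compounds and 300 nM L165041 (final) for 17 h at 37 C; cell viability is quantified by CellTiter-Glo luminescence.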
# [11] = qHTS assay to identify small molecule antagonists of the vitamin D receptor (VDR) signaling pathway - cell viability counter screen (AID 743225; active = well fitted curve in the direction sought with a large enough effect in the repeat runs; inconclusive = weak or mixed curves; inactive = no such curve, though single readings can be large; an effect the other way counts as inactive or inconclusive; note: nearly all actives have a fitted effect of over 50% in size; note: potency is the fitted concentration of half-maximal effect); conditions: VDR-bla HEK293T viability, CellTiter-Glo luminescence, 16 h; viability change, negative = cytotoxic: at 61 µM (top of the series) unless noted
# In short: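 Luminescent cell viability (CellTiter-Glo) in VDR-bla HEK 293T cells after 16 h compound exposure at 37C in the presence of 3 nM final 1-alpha,25-dihydroxy vitamin D3.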
# [12] = qHTS assay for small molecule activators of the heat shock response signaling pathway - cell viability counter screen (AID 743209; active = well fitted curve in the direction sought with a large enough effect in the repeat runs; inconclusive = weak or mixed curves; inactive = no such curve, though single readings can be large; an effect the other way counts as inactive or inconclusive; note: potency is the fitted concentration of half-maximal effect; nearly all actives have a fitted effect of over 50% in size); conditions: HSE-bla HeLa viability, CellTiter-Glo luminescence, 5 h; activity change, negative = cytotoxicity: at 62.6 µM (top of the series) unless noted
# In short: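 Readout: CellTiter-Glo luminescence, 30 min at room temperature. System: HSE-bla HeLa cells, 1500/well, plated overnight. Treatment: compounds in DMSO, 5 h at 37 C.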
# [13] = target: Bile acid receptor (Homo sapiens) (UniProt Q96RI1); test: qHTS assay to identify small molecule antagonists of the farnesoid-X-receptor (FXR) signaling pathway (AID 743217; active = well fitted inhibition curve with a large enough effect in the signal ratio in the repeat runs, not every such curve was filed as active; inconclusive = weak or mixed curves, or effect the other way; inactive = no such curve, though single readings can be large or run the other way; the % refers to the signal ratio; note: potency is the fitted concentration of half-maximal effect); conditions: HEK293T FXR-UAS-bla, beta-lactamase ratio, CDCA-stimulated, 16 h; activity change, negative = inhibition: at 62.6 µM (top of the series) unless noted
# In short: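 GeneBLAzer FXR-UAS-bla HEK 293T, CDCA-stimulated (50 uM final). Compound treatment 16 h, 37 °C. Detection: beta-lactamase cleavage of B/G FRET substrate, fluorescence.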
# [14] = qHTS assay to identify small molecule agonists of the peroxisome proliferator-activated receptor delta (PPARd) signaling pathway - cell viability counter screen (AID 743211; active = well fitted curve in the direction sought with a large enough effect in the repeat runs; inconclusive = weak or mixed curves; inactive = no such curve, though single readings can be large; an effect the other way counts as inactive or inconclusive; note: potency is the fitted concentration of half-maximal effect; nearly all actives have a fitted effect of over 55% in size); conditions: PPARd-bla HEK293H viability, CellTiter-Glo luminescence, 17 h; activity change, negative = cytotoxicity: at 62.6 µM (top of the series) unless noted
# In short: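 Luminescent ATP viability assay (CellTiter-Glo, 30 min RT) in UAS-bla HEK293H cells carrying the PPAR delta reporter construct, 3000 cells/well, after a 17 h compound treatment at 37 C.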
# [15] = qHTS assay to identify small molecule antagonists of the farnesoid-X-receptor (FXR) signaling pathway - cell viability counter screen (AID 743221; active = well fitted cell-killing curve with a large enough effect in the repeat runs, not every such curve was filed as active; inconclusive = weak or mixed curves, or effect the other way; inactive = no such curve, though single readings can be large or run the other way); conditions: FXR-bla HEK293T viability, CellTiter-Glo luminescence, 16 h; activity change, negative = cytotoxicity: at 62.6 µM (top of the series) unless noted
# In short: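 In GeneBLAzer FXR-UAS-bla HEK 293T cells stimulated with 50 uM chenodeoxycholic acid (final), compounds acted for 16 h at 37 C. Viability was assessed afterwards by CellTiter-Glo luminescence.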
# [16] = activation: at 73.3 µM (top of the series) unless noted
# Tags give direction and shape of the fitted curve or compound fluorescence and quenching.
smiles,measurement,setting,value
CCSC(=O)Cl,"ratio activity, negative = inhibition",[1],inconclusive: 16.5% [at 81.1 µM]
same,activation,[2]; [16],inconclusive: 16.7% [at 94.8 µM]
same,activation,[3],inconclusive: -1.54% [at 81.1 µM]
same,"ratio activity, negative = inhibition",[4],inconclusive: -4.21% [at 80.4 µM]
same,Potency,[5],inactive
same,"activity change, negative = inhibition",[6],inconclusive: 16.8% [at 78.8 µM]
O=Cc1cccc(Oc2ccccc2)c1,"ratio activity, negative = inhibition",[1],inconclusive: -5.87% [at 81.1 µM]
same,activation,[2]; [16],inconclusive: 2.57%
same,Potency,[3],"inconclusive: 31.1 µM [rising, partial curve]"
same,Potency,[6],"inconclusive: 0.309 µM [activator, partial curve, poor fit]"
Cc1[nH]c(=O)n(C(C)(C)C)c(=O)c1Cl,Potency,[1],inconclusive: 22.1 µM [activator] and inactive
same,activation,[2]; [16],inconclusive: 2.84% [at 94.8 µM]
same,activation,[2]; at 73.3 µM (top of the series),inactive: 11%
same,Potency,[5],"inconclusive: 11 µM [rising, full curve, poor fit]"
same,Potency,[7],inactive
OC(c1ccc(F)cc1)(c1cncnc1)c1ccccc1Cl (configuration not stated),"ratio activity, negative = inhibition",[1],inconclusive: -20.7%
same,activation,[2]; [16],inconclusive: 13.6%
same,Potency,[8],inactive
same,Potency,[9],inactive
c1cc2c3c(cccc3c1)CC2,"ratio activity, negative = inhibition",[1],inconclusive: 34.1% [at 81.1 µM]
same,Potency,[2]; [16],inactive
same,Potency,[8],inconclusive: 61.6 µM [activator]
same,Potency,[3],inactive
same,Potency,[5],"inconclusive: 0.2 µM [rising, partial curve, poor fit]"
same,Potency,[9],"inconclusive: 49 µM [cytotoxic, single point]"
COC(=O)Nc1cccc(OC(=O)Nc2cccc(C)c2)c1,"ratio activity, negative = inhibition",[1],inconclusive: -27.4% and inconclusive: 7.58%
same,Potency,[2]; [16],active: 48.6 µM
same,Potency,[3],inactive
same,Potency,[4],inactive
C[C@H]1[C@H](c2ccc(Cl)cc2)SC(=O)N1C(=O)NC1CCCCC1,Potency,[1],"inconclusive: 61.6 µM [rising, partial curve, poor fit]"
same,Potency,[2]; [16],"inconclusive: 27.3 µM [rising, single point]"
same,Potency,[8],"inconclusive: 27.5 µM [falling, partial curve, poor fit]"
same,Potency,[10],"inconclusive: 61.6 µM [cytotoxic, single point]"
same,Potency,[6],"inconclusive: 9.77 µM [activator, full curve, poor fit]"
same,Potency,[9],"inconclusive: 38.9 µM [cytotoxic, partial curve]"
same,Potency,[11],"inconclusive: 30.9 µM [cytotoxic, partial curve]"
Cc1cc(O)ccc1Cl,"ratio activity, negative = inhibition",[1],inconclusive: -32.6% [at 81.1 µM]
same,activation,[2]; [16],inconclusive: 37.8% [at 94.8 µM]
same,Potency,[3],"inconclusive: 10.6 µM [falling, partial curve, poor fit]"
same,Potency,[11],"inconclusive: 1.12 µM [cytotoxic, single point]"
N#CCCl,Potency,[1],inactive
same,activation,[2]; [16],inconclusive: -1.26% [at 94.8 µM]
CCC1(CC)C(=O)N=C(O)NC1=O,Potency,[1],inactive
same,activation,[2]; [16],inconclusive: 0.975%
CC(C)N(C(=O)COc1nnc(C(F)(F)F)s1)c1ccc(F)cc1,Potency,[1],active: 7.76 µM
same,Potency,[2]; [16],"inconclusive: 48.6 µM [rising, partial curve]"
same,Potency,[12],"inconclusive: 61.6 µM [cytotoxic, single point]"
same,Potency,[8],"inconclusive: 49 µM [falling, partial curve]"
same,Potency,[3],inactive
same,Potency,[10],"inconclusive: 61.6 µM [cytotoxic, single point]"
same,"ratio activity, negative = inhibition",[4],inconclusive: -92.6%
same,"activity change, negative = inhibition",[13],inconclusive: -24.6%
same,Potency,[9],"inconclusive: 54.9 µM [cytotoxic, single point]"
ClCCBr,Potency,[1],inactive
same,activation,[2]; [16],inconclusive: 0.0128%
same,activation,[2]; at 73.3 µM (top of the series),inactive: 0.8%
same,"ratio activity, negative = inhibition",[4],inconclusive: 0.349%
CC1=C2C[C@H]3[C@@H](CC=C4C[C@@H](O)CC[C@@]43C)[C@@H]2CC[C@]12O[C@@H]1C[C@H](C)CN[C@H]1[C@H]2C,"ratio activity, negative = inhibition",[1],inconclusive: 0.201%
same,Potency,[2]; [16],"inconclusive: 13.3 µM [rising, partial curve, poor fit]"
same,Potency,[14],inconclusive: 5.35 µM [cytotoxic]
same,activation,[3],inconclusive: 1.81%
same,Potency,[10],"inconclusive: 6.01 µM [cytotoxic, single point]"
same,Potency,[7],active: 10.7 µM
same,Potency,[6],inactive
same,Potency,[11],inactive
O=C(N[C@H](c1ccccc1)[C@@H]1CN2CCC1CC2)c1c(Cl)ccc(C(F)(F)F)c1Cl,Potency,[1],active: 4.97 µM
same,Potency,[2]; [16],"inconclusive: 43.9 µM [falling, partial curve]"
same,Potency,[12],"inconclusive: 5.58 µM [rising, partial curve, poor fit]"
same,Potency,[8],inactive
same,Potency,[14],active: 78.8 µM
same,Potency,[3],"inconclusive: 78.8 µM [rising, partial curve, poor fit]"
same,Potency,[13],"inconclusive: 31.4 µM [inhibitor, partial curve]"
same,Potency,[5],active: 70.2 µM
same,"activity change, negative = cytotoxicity",[15],inconclusive: -32.6% [at 81.1 µM]
same,Potency,[6],"inconclusive: 39.5 µM [rising, partial curve, poor fit]"
same,Potency,[9],"inconclusive: 31.4 µM [cytotoxic, partial curve, poor fit]"
same,Potency,[11],inactive
